Source: PMC7819943, “Rice protein-binding microarrays: a tool to detect cis-acting elements near promoter regions in rice”
The list shows a part of the results.

What follows are sequences tested against T1, OsWOX13 (Oryza sativa, UniProt Q5QMM3 1-267) (assay: protein-binding microarray (RPBM); PBS, 2% BSA, 51.3 ng/ul salmon testes DNA, 50 uM zinc acetate, 200 nM TF, 25 C, 1 h; high values mean tight binding). Settings: protein: recombinant; tags: N-terminal polyhistidine and DsRed monomer fusion (pET32a); label: CyDye5-dUTP incorporated in the synthesized complementary strand; 3' TTTTT single-stranded linker to array surface; dsDNA, one strand shown.
T1 sequence: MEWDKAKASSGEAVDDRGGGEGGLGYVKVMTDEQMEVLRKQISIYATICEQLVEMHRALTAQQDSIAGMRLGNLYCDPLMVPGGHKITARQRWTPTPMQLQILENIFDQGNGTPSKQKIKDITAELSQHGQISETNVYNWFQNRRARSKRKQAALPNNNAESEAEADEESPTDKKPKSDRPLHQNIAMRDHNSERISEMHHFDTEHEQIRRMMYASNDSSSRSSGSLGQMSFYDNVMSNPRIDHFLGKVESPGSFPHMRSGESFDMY
Outline: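 Transcription factors were each fused at the N-terminus to a polyhistidine tag plus DsRed and expressed in E. coli BL21-CodonPlus before Ni–NTA purification. Binding to a double-stranded custom Agilent array was carried out with 200 nM protein at 25 °C for 1 h in PBS, 2% BSA, salmon testes DNA and 50 µM zinc acetate. The binding signal is per-feature fluorescence intensity, in arbitrary units, on an Axon 4000B scanner.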

Sequence | binding signal
TAGTCAATTACTACTAGGTATGTGCTATTCATAACCATGACGGAGTCACCTAGTGCAG | 7320 fluorescence intensity (a.u.)
CGGTGGACGCGTCGCTGATTGAGTTGCCTTGTACCTATAACGGAGTCACCTAGTGCAG | 5590 fluorescence intensity (a.u.)
TCACAATAGATAATTTATTCACTGAAAATTTTAGTTTTGGCGGAGTCACCTAGTGCAG | 11100 fluorescence intensity (a.u.)
GACGTAATTAGCGCAAACTGTTAGGCCCAAATGCGTCATTCGGAGTCACCTAGTGCAG | 29500 fluorescence intensity (a.u.)
CAAATAAACAGGGTTCAGTCAAACTCAAGTGAATGAATTGCGGAGTCACCTAGTGCAG | 11500 fluorescence intensity (a.u.)
TGTGATCTGATTGTTTGAAGTTTGCATTCTACTATGTCTGCGGAGTCACCTAGTGCAG | 36800 fluorescence intensity (a.u.)
ACGAATTGACAACGAGGCAGCCCACAGACTTCGGCGCCCACGGAGTCACCTAGTGCAG | 15200 fluorescence intensity (a.u.)
ACTTTAATAAATTAATAGATTTCAATAACACAGTTACGAACGGAGTCACCTAGTGCAG | 18400 fluorescence intensity (a.u.)
AAAATTTAAATTTTCAACTTTAAATTTAGAGTTTATTTTGCGGAGTCACCTAGTGCAG | 15700 fluorescence intensity (a.u.)
CCTATCAATTTGTTTTGCACCTTCTTGTGATGAAACTTAACGGAGTCACCTAGTGCAG | 5820 fluorescence intensity (a.u.)
AAACATATTAGTTAAAATTTAACTTCTACAAATTGTAACACGGAGTCACCTAGTGCAG | 6520 fluorescence intensity (a.u.)
CTTAATTAGCTCTAGCGAGCTAGCTAGCTTGCTCTGTCTTCGGAGTCACCTAGTGCAG | 24200 fluorescence intensity (a.u.)
TATCAGAATTTAAATTGCATAACACACAAATGACCAAAATCGGAGTCACCTAGTGCAG | 5330 fluorescence intensity (a.u.)
GATTAAACTAAGTTTGTTAATGGAGAAATAGTTTAAATCGCGGAGTCACCTAGTGCAG | 5640 fluorescence intensity (a.u.)
GCGTAATTAGGCGGAGAGATTATAGGGAGAGAGATCGCGACGGAGTCACCTAGTGCAG | 16700 fluorescence intensity (a.u.)
TTTGATCGTACTAAAATTAGTATTTTCCTTTCTCAGGCATCGGAGTCACCTAGTGCAG | 5160 fluorescence intensity (a.u.)
TAATTATAATTTTGTTTAGCATATATTAAGTTTTGGAAGACGGAGTCACCTAGTGCAG | 5790 fluorescence intensity (a.u.)
TCTATAAATTGGCTACTACGTCCTCATTGCAAGACTCCCCCGGAGTCACCTAGTGCAG | 24500 fluorescence intensity (a.u.)
CATTGAATGTTTGGACACTAATTATAAATATTAAACGTAGCGGAGTCACCTAGTGCAG | 9090 fluorescence intensity (a.u.)
TATCCGACCTGCCTCATCTGCCAATCATTGCATTCCATATCGGAGTCACCTAGTGCAG | 3450 fluorescence intensity (a.u.)
AGATACTAAAATCAATCAAACATTTTGATATATGACCATCCGGAGTCACCTAGTGCAG | 17500 fluorescence intensity (a.u.)

Sequence | binding signal
ATGGTGATAGACGAGTTTAGATATAACCGGAACAATTCGCCGGAGTCACCTAGTGCAG | 26500 fluorescence intensity (a.u.)
AAATGCGAGAAGAATTAATTACCAATCCCAATTATGTCGACGGAGTCACCTAGTGCAG | 6710 fluorescence intensity (a.u.)
TAACGTATAATTAATTGAGTTTAATTAAGTATTACAAATTCGGAGTCACCTAGTGCAG | 27000 fluorescence intensity (a.u.)
CATGGATTAATTAGGCTCAATAGATTCGTCTCGGGAATTACGGAGTCACCTAGTGCAG | 10300 fluorescence intensity (a.u.)
TTCCTAATTGTATTTCTATATGGACTCTATACTCTACTTCCGGAGTCACCTAGTGCAG | 25000 fluorescence intensity (a.u.)
ACACATACTATTCAATTTGCCAATAAATTGGTAGCGCATGCGGAGTCACCTAGTGCAG | 18600 fluorescence intensity (a.u.)
GGGTATAATAGAGAAAATTTTCTGGATGGGAGTATGGGACCGGAGTCACCTAGTGCAG | 6590 fluorescence intensity (a.u.)
TATTGACAAAGTTTCAATTGCAGCAATTACGCGAGGATCCCGGAGTCACCTAGTGCAG | 5120 fluorescence intensity (a.u.)
CCCTACTGATCAGATTATCATGGCACACTTTAGCTCATTGCGGAGTCACCTAGTGCAG | 7380 fluorescence intensity (a.u.)
GCCTTAATCACACCATTAATTCTCTAGTCTAAACCTCCAACGGAGTCACCTAGTGCAG | 14600 fluorescence intensity (a.u.)
TTCAAATCAAATATATCAGATCAATACGATCCCGATTCGGCGGAGTCACCTAGTGCAG | 3250 fluorescence intensity (a.u.)
TCTACAAAATTGACGATATAAATGTTGGAGATGTTGAACTCGGAGTCACCTAGTGCAG | 16900 fluorescence intensity (a.u.)
GTCCAATTAACCTAGCTTAAGTTGATCAAGCATCTCTACTCGGAGTCACCTAGTGCAG | 10700 fluorescence intensity (a.u.)
AATAATTTTATGTATCAATTTATTCCATCACCTCATTCTACGGAGTCACCTAGTGCAG | 23700 fluorescence intensity (a.u.)
GCCTAATTAATCCATGATTAGCCTATGTGATGCTATAGTACGGAGTCACCTAGTGCAG | 52700 fluorescence intensity (a.u.)
TTCAACTTATGATTTGATTAGCTAACGTTGAGATTTTACGCGGAGTCACCTAGTGCAG | 22000 fluorescence intensity (a.u.)
ACCCATCAACTCCTCAATCAAATCTTTAACAAAAGTGCATCGGAGTCACCTAGTGCAG | 20200 fluorescence intensity (a.u.)
GATAATTGCGTTGCATTTGTTAAAATGTAAGTAGATAATGCGGAGTCACCTAGTGCAG | 26300 fluorescence intensity (a.u.)
CAGGTGTGATTGAAGTGATGTACTCAACTTACACCCGGGCCGGAGTCACCTAGTGCAG | 54400 fluorescence intensity (a.u.)
AAAATAATGAGTGAATGACAACGTTGTACCGACCGCGCCGCGGAGTCACCTAGTGCAG | 5960 fluorescence intensity (a.u.)
TTGCAATTAACAAAAGCTAGCTACTACATCTAATAGGAATCGGAGTCACCTAGTGCAG | 3750 fluorescence intensity (a.u.)

Sequence | binding signal
AGGAGGAGGAGGAGGAGGAGGAGGAGGCGGTGGGAGGGATCGGAGTCACCTAGTGCAG | 8140 fluorescence intensity (a.u.)
TGAGATTATATATAAACTTTTGATTTGAGCGTAAGTTAAGCGGAGTCACCTAGTGCAG | 16400 fluorescence intensity (a.u.)
ATTAATGATTGATAGTCAGTCACTTAGCCATGTTATTTTGCGGAGTCACCTAGTGCAG | 65500 fluorescence intensity (a.u.)
CTGATTTATATATATATATATGTAGACATCCAGAGAGAGACGGAGTCACCTAGTGCAG | 5280 fluorescence intensity (a.u.)
TCATAAAGTTTAATCAATCAAAGAAGCCTGCATGGATTGACGGAGTCACCTAGTGCAG | 18900 fluorescence intensity (a.u.)
ATCCAATTATAATTGGCCCAAAAGTTATACATCATGTAAGCGGAGTCACCTAGTGCAG | 23800 fluorescence intensity (a.u.)
GTGTACTATTGATTGAGGAGTAGCATCCATAATTAGAGTGCGGAGTCACCTAGTGCAG | 29400 fluorescence intensity (a.u.)
GGAATAATGGGTTAATGGTTAATTGCTTAATCTCGCCTTGCGGAGTCACCTAGTGCAG | 19800 fluorescence intensity (a.u.)
CAGTTTCTCAATCATGAAGCAACGAGATGTGGTACTTGTACGGAGTCACCTAGTGCAG | 6100 fluorescence intensity (a.u.)
TTGTGTGGATTACGTTGACTAATTAATGGCGAATTCGATCCGGAGTCACCTAGTGCAG | 11900 fluorescence intensity (a.u.)
ACTAATTCAGGTAATTAGGGCCAAAGATTATGCGTACCTGCGGAGTCACCTAGTGCAG | 23400 fluorescence intensity (a.u.)
CTGCGTTTATTTGGGTTTATTTGGGGCTGAGAGAGTACATCGGAGTCACCTAGTGCAG | 6060 fluorescence intensity (a.u.)
AATAACTAGAAAAGATGACCGAAATTGGGAAGGCGACTTGCGGAGTCACCTAGTGCAG | 3250 fluorescence intensity (a.u.)
CACACCTTCTGTACGAAATTAATTGACCGCGTGATCGCGTCGGAGTCACCTAGTGCAG | 15500 fluorescence intensity (a.u.)
CCTAACTAATCCATGATTAGCCTATGTGATGCTACAGTAACGGAGTCACCTAGTGCAG | 33500 fluorescence intensity (a.u.)
ATTTGCAAATATTGATTTGTTAAATTTTATATCATTCTTGCGGAGTCACCTAGTGCAG | 12600 fluorescence intensity (a.u.)
TCATCTAATTAATTGGCAAGGTGATATGCGTCCCTGAAAACGGAGTCACCTAGTGCAG | 39500 fluorescence intensity (a.u.)
AGAAAATCATTAGCTGCAATTACTCCCTTCTTCCTTAGATCGGAGTCACCTAGTGCAG | 4300 fluorescence intensity (a.u.)
AGTAATTAAGTAGGATATATGTATTATCTAAACTCTAGGCCGGAGTCACCTAGTGCAG | 15300 fluorescence intensity (a.u.)
TATATGAGATTGCTAGATTGACGACGGTTGTCTGTCTGTCCGGAGTCACCTAGTGCAG | 37600 fluorescence intensity (a.u.)
TTTGATAAACTGGCAAGCACGGGTGAATTTTGCATCAACACGGAGTCACCTAGTGCAG | 13500 fluorescence intensity (a.u.)

Sequence | binding signal
GAAGAAATTAACTCATTCATCAATGTGACAAAACCAACGACGGAGTCACCTAGTGCAG | 9080 fluorescence intensity (a.u.)
CCTCACCAATCAGTCAGTACTCAGTACAAGTGAAGCAATCCGGAGTCACCTAGTGCAG | 10400 fluorescence intensity (a.u.)
CACGCCGCCCAATCACCACCTCATATACCTCGCGATCCCTCGGAGTCACCTAGTGCAG | 4870 fluorescence intensity (a.u.)
TTGCTTAATTATTAGTACTGGTCCTAGGACAGTACCAGGTCGGAGTCACCTAGTGCAG | 19400 fluorescence intensity (a.u.)
ATATCAATTAATGCTTCAAGATTAGCACCCATATTATATGCGGAGTCACCTAGTGCAG | 35100 fluorescence intensity (a.u.)
CGAACCCTTAGATTAATTGGTTTGGATTTTGACTCTTAGGCGGAGTCACCTAGTGCAG | 14700 fluorescence intensity (a.u.)
TGTGATTGGTAATTGCCGAACTATTTGAAAATGGTGCGTGCGGAGTCACCTAGTGCAG | 62300 fluorescence intensity (a.u.)
AGTTTCTACCCTTAAATTGATAAATTGAAGTTTCTCAATCCGGAGTCACCTAGTGCAG | 9590 fluorescence intensity (a.u.)
AATTGATTACGGCTTATAGTTTAGGACGAAGGAAGCATTACGGAGTCACCTAGTGCAG | 25000 fluorescence intensity (a.u.)
TTGAACAATAAATTGCTAAAATTGTTAAATGGCATTGACTCGGAGTCACCTAGTGCAG | 11400 fluorescence intensity (a.u.)
GTTTAATGATTAATCTAGTAACATTAATTTTACATTATTGCGGAGTCACCTAGTGCAG | 32300 fluorescence intensity (a.u.)
ATTTAAAATGATTAGACACAACCTACACTTATATATCTGTCGGAGTCACCTAGTGCAG | 21800 fluorescence intensity (a.u.)
ACTAAAATTCCTGTTAGCATATTTTGACATGTAGAATCCACGGAGTCACCTAGTGCAG | 4070 fluorescence intensity (a.u.)
TGGACAGGCCAATCACAGGAAGCACCGCATTTCGTGCCAACGGAGTCACCTAGTGCAG | 11000 fluorescence intensity (a.u.)
TCCCAGTAAATTAACGGATTTAGAAACAGCCGGAAATCTTCGGAGTCACCTAGTGCAG | 9160 fluorescence intensity (a.u.)
ACTGATAGGCTAGATTAGGTTTTCCTCCCCATTGTACTTCCGGAGTCACCTAGTGCAG | 35200 fluorescence intensity (a.u.)
AATAATTTGAATAGTCTGTATACAGAGTAAGAAAAGTAACCGGAGTCACCTAGTGCAG | 8970 fluorescence intensity (a.u.)
TAGTGCTCATTGATTCCACTAATTAAGAACCGCTAACTACCGGAGTCACCTAGTGCAG | 15000 fluorescence intensity (a.u.)
TATATGGTAATTAATCCTTGTGCGCTGACACTGATCAAGTCGGAGTCACCTAGTGCAG | 4070 fluorescence intensity (a.u.)
CCAAAATTTTGGCAGAATTTCTTATGTATTTACCAAAGTTCGGAGTCACCTAGTGCAG | 3300 fluorescence intensity (a.u.)
CCCAAATTATACTAATTATTTTATTTATTCTACATCTGACCGGAGTCACCTAGTGCAG | 27800 fluorescence intensity (a.u.)
